The list shows a part of the results.
Key:
Test in all cases: glycan array binding signal (z-score within array); higher = stronger binding
Details in all cases: glycan notation: IUPAC condensed, linker removed
[1] = target: Fuc(a1-2)Gal(b1-4)[Fuc(a1-3)]GlcNAc(b1-2)Man(a1-3)[Fuc(a1-2)Gal(b1-4)[Fuc(a1-3)]GlcNAc(b1-2)Man(a1-6)]Man(b1-4)GlcNAc(b1-4)[Fuc(a1-6)]GlcNAc
How it was run: (§1)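 Negative Z-scores can be read as non-binding. The Z-score is calculated within each array and then averaged across arrays of one protein sequence at different concentrations or buffers and across linkers. Arrays, 3228 in all, were curated from the Consortium for Functional Glycomics database and kept only where the protein sequence was available.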

[2] = target: Fuc(a1-2)Gal(b1-4)[Fuc(a1-3)]GlcNAc(b1-2)[Fuc(a1-2)Gal(b1-4)[Fuc(a1-3)]GlcNAc(b1-4)]Man(a1-3)[Fuc(a1-2)Gal(b1-4)[Fuc(a1-3)]GlcNAc(b1-2)Man(a1-6)]Man(b1-4)GlcNAc(b1-4)GlcNAc
How it was run: as §1

[3] = target: Fuc(a1-2)Gal(b1-4)[Fuc(a1-3)]GlcNAc(b1-3)Gal(b1-4)[Fuc(a1-3)]GlcNAc
How it was run: as §1

[4] = target: Fuc(a1-2)Gal(b1-4)[Fuc(a1-3)]GlcNAc(b1-3)Gal(b1-4)[Fuc(a1-3)]GlcNAc(b1-3)Gal(b1-4)[Fuc(a1-3)]GlcNAc
How it was run: as §1

[5] = target: Fuc(a1-2)Gal(b1-4)[Fuc(a1-3)]GlcNAc(b1-3)GalNAc
How it was run: as §1

[6] = target: Fuc(a1-2)Gal(b1-4)[Fuc(a1-3)]GlcNAc(b1-3)[Neu5Ac(a2-6)Gal(b1-4)GlcNAc(b1-6)]Gal(b1-4)Glc
How it was run: as §1

[7] = target: Fuc(a1-2)Gal3S(b1-4)GlcNAc
How it was run: as §1

[8] = target: Fuc(a1-2)Gal6S(b1-3)GlcNAc
How it was run: as §1

[9] = target: Fuc(a1-2)Gal6S(b1-3)GlcNAc6S
How it was run: as §1

Fuc(a1-2)Gal6S(b1-4)Glc = target: Fuc(a1-2)Gal6S(b1-4)Glc
How it was run: as §1

[10] = target: Fuc(a1-2)Gal6S(b1-4)Glc6S
How it was run: as §1

Fuc(a1-2)[Gal(a1-3)]Gal = target: Fuc(a1-2)[Gal(a1-3)]Gal
How it was run: as §1

[11] = target: Fuc(a1-2)[Gal(a1-3)]Gal(b1-3)GalNAc
How it was run: as §1

[12] = target: Fuc(a1-2)[Gal(a1-3)]Gal(b1-3)GalNAc(b1-3)Gal(a1-4)Gal(b1-4)Glc
How it was run: as §1

[13] = target: Fuc(a1-2)[Gal(a1-3)]Gal(b1-3)GlcNAc
How it was run: as §1

[14] = target: Fuc(a1-2)[Gal(a1-3)]Gal(b1-3)GlcNAc(b1-2)Man(a1-3)[Fuc(a1-2)[Gal(a1-3)]Gal(b1-3)GlcNAc(b1-2)Man(a1-6)]Man(b1-4)GlcNAc(b1-4)GlcNAc
How it was run: as §1

[15] = target: Fuc(a1-2)[Gal(a1-3)]Gal(b1-3)GlcNAc(b1-2)Man(a1-3)[Fuc(a1-2)[Gal(a1-3)]Gal(b1-3)GlcNAc(b1-2)Man(a1-6)]Man(b1-4)GlcNAc(b1-4)[Fuc(a1-6)]GlcNAc
How it was run: as §1

[16] = target: Fuc(a1-2)[Gal(a1-3)]Gal(b1-3)GlcNAc(b1-3)GalNAc
How it was run: as §1

[17] = target: Fuc(a1-2)[Gal(a1-3)]Gal(b1-3)GlcNAc(b1-6)GalNAc
How it was run: as §1

[18] = target: Fuc(a1-2)[Gal(a1-3)]Gal(b1-4)Glc
How it was run: as §1

[19] = target: Fuc(a1-2)[Gal(a1-3)]Gal(b1-4)GlcNAc
How it was run: as §1

[20] = target: Fuc(a1-2)[Gal(a1-3)]Gal(b1-4)GlcNAc(b1-2)Man
How it was run: as §1

[21] = target: Fuc(a1-2)[Gal(a1-3)]Gal(b1-4)GlcNAc(b1-2)Man(a1-3)[Fuc(a1-2)[Gal(a1-3)]Gal(b1-4)GlcNAc(b1-2)Man(a1-6)]Man(b1-4)GlcNAc(b1-4)GlcNAc
How it was run: as §1

[22] = target: Fuc(a1-2)[Gal(a1-3)]Gal(b1-4)GlcNAc(b1-2)Man(a1-3)[Fuc(a1-2)[Gal(a1-3)]Gal(b1-4)GlcNAc(b1-2)Man(a1-6)]Man(b1-4)GlcNAc(b1-4)[Fuc(a1-6)]GlcNAc
How it was run: as §1

[23] = target: Fuc(a1-2)[Gal(a1-3)]Gal(b1-4)GlcNAc(b1-3)GalNAc
How it was run: as §1

[24] = target: Fuc(a1-2)[Gal(a1-3)]Gal(b1-4)GlcNAc(b1-3)[Fuc(a1-2)[Gal(a1-3)]Gal(b1-4)GlcNAc(b1-6)]GalNAc
How it was run: as §1

[25] = target: Fuc(a1-2)[Gal(a1-3)]Gal(b1-4)GlcNAc(b1-6)GalNAc
How it was run: as §1

[26] = target: Fuc(a1-2)[Gal(a1-3)]Gal(b1-4)[Fuc(a1-3)]Glc
How it was run: as §1

[27] = target: Fuc(a1-2)[Gal(a1-3)]Gal(b1-4)[Fuc(a1-3)]GlcNAc
How it was run: as §1

[28] = target: Fuc(a1-2)[Gal(a1-3)]Gal(b1-4)[Fuc(a1-3)]GlcNAc(b1-3)GalNAc
How it was run: as §1

[29] = target: Fuc(a1-2)[Gal(a1-4)]Gal(b1-4)GlcNAc
How it was run: as §1

[30] = target: Fuc(a1-2)[GalNAc(a1-3)]Gal
How it was run: as §1

[31] = target: Fuc(a1-2)[GalNAc(a1-3)]Gal(b1-3)GalNAc(a1-3)[Fuc(a1-2)]Gal(b1-4)GlcNAc
How it was run: as §1

[32] = target: Fuc(a1-2)[GalNAc(a1-3)]Gal(b1-3)GalNAc(b1-3)Gal(a1-4)Gal(b1-4)Glc
How it was run: as §1

[33] = target: Fuc(a1-2)[GalNAc(a1-3)]Gal(b1-3)GlcNAc
How it was run: as §1

[34] = target: Fuc(a1-2)[GalNAc(a1-3)]Gal(b1-3)GlcNAc(b1-2)Man(a1-3)[Fuc(a1-2)[GalNAc(a1-3)]Gal(b1-3)GlcNAc(b1-2)Man(a1-6)]Man(b1-4)GlcNAc(b1-4)GlcNAc
How it was run: as §1

[35] = target: Fuc(a1-2)[GalNAc(a1-3)]Gal(b1-3)GlcNAc(b1-2)Man(a1-3)[Fuc(a1-2)[GalNAc(a1-3)]Gal(b1-3)GlcNAc(b1-2)Man(a1-6)]Man(b1-4)GlcNAc(b1-4)[Fuc(a1-6)]GlcNAc
How it was run: as §1

[36] = target: Fuc(a1-2)[GalNAc(a1-3)]Gal(b1-3)GlcNAc(b1-3)GalNAc
How it was run: as §1

B1: LecB PA7 (Pseudomonas aeruginosa) (protein)
chain: MATQGVFTLPANTRFGVTAFANSSATQTVKVLVNNETAATFTGQSTNNAVIGSQVLNSGGGGKVQIQVSVNGRSSDLVSAQVILANELNVALVGSEDSTDNDYNDAVVVINWPLG
Q: For B1, which “glycan array binding signal (z-score)” value [1] is on record?
A: The value was 5.18.

Q: And the “glycan array binding signal (z-score)” value [2]?
A: Its value is -0.08.

Q: And the “glycan array binding signal (z-score)” value [3]?
A: The value was 4.93.

Q: And the “glycan array binding signal (z-score)” value [4]?
A: The value was 4.08.

Q: What about the “glycan array binding signal (z-score)” value [5] of the same binder?
A: The value was -0.338.

Q: What about the “glycan array binding signal (z-score)” value [6] of the same binder?
A: Its value is 0.243.

Q: What about the “glycan array binding signal (z-score)” value [7] of the same binder?
A: The value was 1.23.

Q: And the “glycan array binding signal (z-score)” value [8]?
A: Its value is 0.906.

Q: And the “glycan array binding signal (z-score)” value [9]?
A: Its value is 0.022.

Q: What about the “glycan array binding signal (z-score)” value (Fuc(a1-2)Gal6S(b1-4)Glc) of the same binder?
A: The value was 1.01.

Q: And the “glycan array binding signal (z-score)” value [10]?
A: The value was 1.43.

Q: And the “glycan array binding signal (z-score)” value (Fuc(a1-2)[Gal(a1-3)]Gal)?
A: Its value is -0.071.

Q: What about the “glycan array binding signal (z-score)” value [11] of the same binder?
A: Its value is -0.454.

Q: And the “glycan array binding signal (z-score)” value [12]?
A: The value was -0.43.

Q: What about the “glycan array binding signal (z-score)” value [13] of the same binder?
A: The value was -0.458.

Q: What about the “glycan array binding signal (z-score)” value [14] of the same binder?
A: Its value is -0.145.

Q: And the “glycan array binding signal (z-score)” value [15]?
A: The value was 0.145.

Q: And the “glycan array binding signal (z-score)” value [16]?
A: Its value is -0.479.

Q: What about the “glycan array binding signal (z-score)” value [17] of the same binder?
A: Its value is -0.488.

Q: And the “glycan array binding signal (z-score)” value [18]?
A: Its value is -0.36.

Q: What about the “glycan array binding signal (z-score)” value [19] of the same binder?
A: The value was -0.44.

Q: What about the “glycan array binding signal (z-score)” value [20] of the same binder?
A: The value was -0.446.

Q: And the “glycan array binding signal (z-score)” value [21]?
A: The value was -0.375.

Q: And the “glycan array binding signal (z-score)” value [22]?
A: Its value is 0.222.

Q: And the “glycan array binding signal (z-score)” value [23]?
A: Its value is -0.47.

Q: What about the “glycan array binding signal (z-score)” value [24] of the same binder?
A: The value was -0.458.

Q: What about the “glycan array binding signal (z-score)” value [25] of the same binder?
A: The value was -0.461.

Q: And the “glycan array binding signal (z-score)” value [26]?
A: Its value is 0.207.

Q: And the “glycan array binding signal (z-score)” value [27]?
A: Its value is 0.348.

Q: And the “glycan array binding signal (z-score)” value [28]?
A: The value was 0.197.

Q: And the “glycan array binding signal (z-score)” value [29]?
A: The value was 1.38.

Q: What about the “glycan array binding signal (z-score)” value [30] of the same binder?
A: The value was -0.237.

Q: What about the “glycan array binding signal (z-score)” value [31] of the same binder?
A: The value was -0.464.

Q: What about the “glycan array binding signal (z-score)” value [32] of the same binder?
A: The value was -0.491.

Q: And the “glycan array binding signal (z-score)” value [33]?
A: Its value is -0.334.

Q: What about the “glycan array binding signal (z-score)” value [34] of the same binder?
A: Its value is -0.372.

Q: What about the “glycan array binding signal (z-score)” value [35] of the same binder?
A: The value was 0.199.

Q: And the “glycan array binding signal (z-score)” value [36]?
A: The value was -0.491.
